From the supplement of paper PMC12217912
Some of the results follow. Sequences were assembled here from the parent chain. Inactive controls read about 0.05.

B1: TEV protease; numbered along this chain (parent)
chain: MGESLFKGPRDYNPISSSICHLTNESDGHTTSLYGIGFGPFIITNKHLFRRNNGTLVVQSLHGVFKVKDTTTLQQHLVDGRDMIIIRMPKDFPPFPQKLKFREPQREERICLVTTNFQTKSMSSMVSDTSCTFPSGDGIFWKHWIQTKDGQCGSPLVSTRDGFIVGIHSASNFTNTNNYFTSVPKNFMELLTNQEAQQWVSGWRLNADSVLWGGHKVFMVKPEEPFQPVKEATQL

Variants of: B1
Assay: raw area under fraction-flipped curve 0-4 h after induction (AUC4h, not background-subtracted), DNA-recorder readout of cleavage of the substrate (dimensionless); higher = more cleavage of the substrate by the protease variant
Details: temperature: 34 °C; time window: 0-4 h after rhamnose induction
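Further: Bxb1 expression induced with 0.2% (w/v) L-rhamnose at OD600 near 0.5, cultures sampled hourly, flipped fraction per protease–substrate barcode pair counted by paired-end Illumina sequencing.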

| Variant | area with substrate ENCYFQS | area with substrate ENDYFQS | area with substrate ENEYFQS | area with substrate ENFYFQS | area with substrate ENHYFQS | area with substrate ENKYFQS | area with substrate ENMYFQS | area with substrate ENNYFQS | area with substrate ENQYFQS | area with substrate ENRYFQS |
| --- | --- | --- | --- | --- | --- | --- | --- | --- | --- | --- |
| M219H | 0.0676 | 0.0618 | 0.057 | 0.054 | 0.0534 | 0.0512 | 0.072 | 0.0571 | 0.0694 | 0.0794 |
| M219K | 0.0554 | 0.0532 | 0.062 | – | – | 0.0852 | 0.0704 | 0.065 | 0.0586 | – |
| Q227F | 0.0669 | 0.0689 | 0.064 | – | – | 0.0647 | – | – | 0.0533 | – |
| V229P | 0.1 | 0.0611 | – | 0.0721 | 0.0826 | 0.0587 | – | 0.0587 | – | 0.0573 |
| L5Y | – | 0.0567 | 0.0474 | 0.0608 | – | – | – | 0.055 | – | 0.0683 |
| F6R | – | 0.0708 | 0.0503 | – | 0.0658 | – | – | – | 0.0587 | – |
| K7E | – | 0.0659 | – | 0.0606 | – | – | – | 0.0418 | 0.0458 | – |
| Y34E | – | 0.0794 | – | – | – | – | – | – | 0.0481 | 0.0575 |
| V58Q | – | 0.0484 | – | – | – | – | 0.0499 | – | 0.0524 | 0.0507 |
| H76P | – | 0.0666 | 0.0749 | – | – | – | 0.0571 | 0.057 | 0.0611 | 0.0465 |
| M83P | – | 0.0609 | – | – | – | 0.0596 | – | – | – | 0.0529 |
| I84Q | – | 0.0576 | 0.051 | – | 0.056 | 0.057 | – | – | 0.0656 | – |
| R87K | – | 0.058 | – | – | 0.0428 | – | – | 0.0528 | 0.0577 | – |
| M88S | – | 0.0552 | – | – | – | 0.066 | – | 0.0495 | 0.0555 | 0.0576 |
| F101Y | – | 0.0456 | – | – | – | – | – | 0.0579 | – | – |
| T114D | – | 0.0485 | 0.0584 | 0.0462 | 0.0606 | 0.0552 | 0.08 | 0.0454 | – | 0.052 |
| F117D | – | 0.061 | 0.0496 | 0.0913 | 0.004 | 0.0497 | 0.0758 | – | 0.0522 | 0.0598 |
| D128P | – | 0.0601 | – | – | – | 0.0607 | 0.11 | – | 0.0547 | 0.0435 |
| T129E | – | 0.0667 | – | – | 0.0587 | 0.0612 | – | 0.049 | – | 0.0675 |
| P134K | – | 0.0618 | 0.0591 | – | – | 0.0601 | 0.0059 | 0.0485 | 0.0667 | – |
| K142Q | – | 0.0644 | 0.0583 | 0.0688 | 0.0691 | 0.0685 | – | – | 0.0674 | 0.0585 |

| Variant | area with substrate ENCYFQS | area with substrate ENDYFQS | area with substrate ENEYFQS | area with substrate ENFYFQS | area with substrate ENHYFQS | area with substrate ENKYFQS | area with substrate ENMYFQS | area with substrate ENNYFQS | area with substrate ENQYFQS | area with substrate ENRYFQS |
| --- | --- | --- | --- | --- | --- | --- | --- | --- | --- | --- |
| H143T | – | 0.0517 | 0.0615 | 0.0608 | – | – | 0.0921 | 0.0614 | 0.0618 | 0.0693 |
| T147D | – | 0.0794 | 0.0607 | – | – | – | – | 0.0373 | – | – |
| G153W | – | 0.0572 | – | 0.0468 | – | – | – | – | – | 0.0857 |
| T159F | – | 0.093 | – | 0.0592 | – | – | – | – | 0.0495 | – |
| D161P | – | 0.0604 | 0.0524 | – | 0.0582 | – | – | – | 0.0317 | – |
| F163T | – | 0.0549 | – | 0.0498 | 0.0567 | 0.0604 | – | – | – | – |
| A170M | – | 0.0243 | – | – | – | 0.0561 | – | 0.0613 | – | 0.0699 |
| T174H | – | 0.0648 | 0.0553 | – | – | – | 0.0468 | – | – | 0.0563 |
| N186K | – | 0.0799 | 0.049 | – | – | – | – | – | 0.0614 | 0.0578 |
| F187T | – | 0.0537 | – | – | – | – | 0.0608 | 0.0503 | – | – |
| M188I | – | 0.0852 | 0.0666 | 0.0347 | 0.0378 | – | – | – | 0.0549 | 0.0618 |
| K221A | – | 0.0705 | – | – | 0.0632 | 0.0514 | – | 0.0636 | – | – |
| P225S | – | 0.0641 | 0.0794 | – | 0.054 | – | – | 0.0758 | – | 0.0424 |
| L235G | – | 0.0598 | – | – | 0.0789 | – | – | – | 0.0606 | – |
| E3I | – | – | 0.0744 | 0.0466 | 0.0675 | – | – | 0.075 | 0.0648 | 0.0556 |
| G35C | – | – | 0.0523 | – | 0.0513 | – | – | 0.0339 | – | – |
| N53E | – | – | 0.0662 | 0.0585 | – | – | – | – | 0.058 | – |
| V67Q | – | – | 0.0524 | 0.0633 | 0.0726 | – | – | 0.0455 | 0.0529 | – |
| L73F | – | – | 0.0518 | – | 0.0508 | – | – | 0.055 | 0.0561 | 0.0716 |
| Q97K | – | – | 0.0476 | 0.0515 | – | 0.08 | – | – | – | 0.0583 |
| K100M | – | – | 0.084 | 0.065 | 0.0767 | – | – | – | – | – |

Same assay, conditions: temperature: 34 °C; time window: 0-4 h after rhamnose induction

| Variant | area with substrate ENSYFQS | area with substrate ENTYFQS | area with substrate ENYYFQS | area with substrate ENGYFQS | area with substrate ENIYFQS | area with substrate ENPYFQS | area with substrate ENVYFQS | area with substrate ENWYFQS |
| --- | --- | --- | --- | --- | --- | --- | --- | --- |
| M219H | 0.0586 | 0.0568 | 0.0605 | – | – | – | – | – |
| M219K | 0.0552 | 0.0591 | 0.0578 | 0.0499 | 0.061 | 0.0705 | 0.0601 | – |
| Q227F | – | – | – | – | 0.12 | – | – | – |
| V229P | – | 0.0631 | 0.0263 | 0.0575 | – | 0.0471 | 0.0799 | – |
| L5Y | 0.05 | – | – | – | – | 0.0687 | 0.0823 | – |
| F6R | 0.0595 | – | – | – | – | – | – | 0.0054 |
| K7E | – | – | – | 0.0671 | – | 0.0592 | – | – |
| Y34E | – | 0.0562 | – | – | – | 0.0541 | 0.0641 | – |
| V58Q | 0.0437 | – | – | – | – | – | – | – |
| H76P | 0.0641 | 0.0358 | – | – | 0.0598 | – | 0.0495 | 0.0568 |
| M83P | – | 0.0538 | – | – | 0.0754 | – | 0.0386 | – |
| I84Q | 0.0639 | – | 0.0564 | – | – | – | 0.0818 | 0.0041 |
| R87K | 0.0609 | – | – | 0.0788 | – | – | – | – |
| M88S | 0.0621 | – | 0.0541 | – | – | – | – | 0.0359 |
| F101Y | 0.05 | – | 0.0411 | – | – | – | – | – |
| T114D | 0.0533 | – | – | – | 0.134 | – | – | – |
| F117D | – | – | 0.0716 | – | – | – | 0.0777 | – |
| D128P | 0.0518 | – | 0.059 | – | 0.108 | – | – | – |
| T129E | 0.0529 | 0.0803 | – | 0.0702 | – | 0.079 | – | 0.0681 |
| P134K | 0.06 | 0.082 | – | – | 0.0999 | – | 0.0478 | – |
| K142Q | 0.0598 | – | 0.0607 | – | – | – | – | 0.0727 |

| Variant | area with substrate ENSYFQS | area with substrate ENTYFQS | area with substrate ENYYFQS | area with substrate ENGYFQS | area with substrate ENIYFQS | area with substrate ENPYFQS | area with substrate ENVYFQS | area with substrate ENWYFQS |
| --- | --- | --- | --- | --- | --- | --- | --- | --- |
| H143T | 0.07 | 0.0653 | – | – | – | 0.0568 | – | 0.0112 |
| T147D | – | – | – | – | 0.0859 | – | – | – |
| G153W | 0.0586 | 0.0621 | – | – | – | – | – | – |
| T159F | 0.0779 | – | 0.0614 | – | – | – | 0.0651 | – |
| D161P | 0.0392 | – | – | 0.0623 | – | – | – | – |
| F163T | 0.06 | – | – | – | – | – | 0.0879 | – |
| A170M | – | – | 0.0667 | 0.0533 | – | – | – | – |
| T174H | – | 0.0663 | – | – | 0.0871 | – | 0.0646 | – |
| N186K | – | – | – | – | – | – | 0.056 | – |
| F187T | – | 0.0611 | 0.0582 | 0.0721 | – | – | 0.0342 | – |
| M188I | 0.0612 | 0.0426 | – | – | 0.146 | – | – | 0.0596 |
| K221A | 0.0613 | – | – | – | – | 0.0844 | 0.0713 | – |
| P225S | 0.0628 | – | – | – | – | 0.0487 | – | 0.0474 |
| L235G | 0.0553 | 0.0772 | – | – | – | – | – | – |
| E3I | 0.0257 | 0.0351 | – | – | 0.146 | 0.0595 | – | – |
| G35C | 0.053 | 0.0498 | – | – | – | – | – | – |
| N53E | 0.0608 | 0.0601 | 0.0319 | 0.0594 | – | – | 0.0748 | – |
| V67Q | 0.0693 | – | – | – | 0.103 | 0.0721 | – | – |
| L73F | 0.0686 | 0.0744 | 0.0458 | 0.0638 | 0.0606 | – | – | – |
| Q97K | 0.0705 | – | – | – | – | – | – | 0.059 |
| K100M | 0.0464 | – | – | – | – | – | 0.0767 | – |
